Assay results as given in PubChem BioAssay AID504832 (National Center for Advancing Translational Sciences (NCATS), 2011).
Out of some 310,000 compounds screened, about 18,000 (5.8%) were called active. The inconclusive results got no clear call from the source; some entries with a clear call stand among them for comparison. The call rests on the fitted dose curve; in most records, active means well fitted inhibition curve with a large enough effect; inconclusive means small, poorly fitted or top-dose-only effect, or another doubt; inactive means no such curve, though single readings can be large or run the other way. No potency is given beside an inconclusive call; the fits are too rough.

test: Primary qHTS for delayed death inhibitors of the malarial parasite plastid, 48 hour incubation; settings: P. falciparum luciferase growth in erythrocytes; series mostly up to 28.7 µM; activity change, negative = inhibition: at the top concentration
Outline: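 Compounds are pin-transferred into medium, infected erythrocytes (2% hematocrit, 0.1% parasitemia final) are added, and plates sit one parasite generation at 37 C in 5% CO2. Detection reagent is then added and luminescence measured.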
On the % scale 0 is the no-effect control and ±100 the full control effect; potency means the concentration at half of the fitted maximal effect; tags describe the fitted curve by direction and shape.

Structure (SMILES) | activity change, negative = inhibition | Potency
O=C(CSc1ncnc2c1oc1ccccc12)Nc1cccc(Cl)c1 | inactive: -20.4% | –
C/C=C/C=C/C(=O)Nc1cccc(C2=NOC3(C2)C[C@H](C(N)=O)N(C(=O)CC(c2ccccc2)c2ccccc2)C3)c1 (some centres undefined) | – | inconclusive [inhibitor, single point]
NC(=S)N/N=C\c1c(OCc2ccccc2Cl)ccc2ccccc12 | – | active: 10.4 µM
Cc1ccc(NC(=S)N=Nc2c(O)[nH]c3ccccc23)cc1 | – | active: 5.22 µM
COc1ccccc1NC(=O)c1c(C)nn(-c2ccccc2)c1Cl | inactive: -27.9% | –
COc1ccc(NC(=O)C(CCS(C)(=O)=O)NC(C)=O)cc1 (centres undefined) | inactive: 12.3% | –
CC1CN(c2nc(-c3ccccc3)nnc2-c2ccccc2)CC(C)O1 (centres undefined) | – | inconclusive [inhibitor, single point]
CC(C)(C)c1ccc(NC(=O)N2CCN(c3ccc([N+](=O)[O-])cn3)CC2)cc1 | – | active: 5.22 µM
Cc1nc(-c2ccccn2)sc1C(=O)O | inactive: 76.9% | –
N/C(Cc1ccccc1)=N\OC(=O)c1cccc2ccccc12 | – | active: 3.29 µM
O=C(NCC1CC1(Cl)Cl)Nc1ccc(Cl)c(Cl)c1 (centres undefined) | – | inconclusive [inhibitor, single point]
COc1cccc(NC(=O)CN(C)C(=O)c2ccc(NC(=O)CC3SC(N4CCCCC4)=NC3=O)cc2)c1 (centres undefined) | – | inconclusive [inhibitor, single point]
O=C(Nc1ccccc1N1CCCCC1)c1ncoc1-c1cccc(F)c1 | – | inconclusive [inhibitor, single point]
COc1ccc(C(=O)Cn2nnc(-c3ccccc3NC(=O)C3CC3)n2)cc1 | – | active: 11.7 µM
Cc1cc(C)cc(-n2c(C)cc(C=C(C#N)C#N)c2C)c1 | – | inconclusive [inhibitor, single point]
CCOC(=O)C1=C(CSc2nc3c(cc2C#N)CN(C)CC3)OC(N)=C(C#N)C1c1ccc(Cl)cc1 (centres undefined) | – | inconclusive [inhibitor, partial curve]
CC1(C)Cc2c(sc(NC(=O)c3ccc(S(=O)(=O)N4CCCCCC4)cc3)c2C#N)C(C)(C)N1 | – | inconclusive [inhibitor, single point]
COc1ccccc1C1c2c(C)nn(-c3ccccc3)c2NC(=O)C1NC(=O)c1ccccc1 (centres undefined) | – | inconclusive [inhibitor, single point]
CCN(CC(=O)NC1CCCCC1)S(=O)(=O)c1ccc(Cl)cc1 | – | inconclusive [inhibitor, single point]
CC(CCc1ccco1)NC(=O)c1cccc2c1C(=O)N(C1CCCCC1)C2 (centres undefined) | – | inconclusive [inhibitor, partial curve, poor fit]
COc1ccc(NC(=O)c2ccccc2N(Cc2ccccc2)S(C)(=O)=O)c(OC)c1 | – | inconclusive [inhibitor, partial curve, poor fit]
CCCCCCCCN1C(=O)C(O)=C(C(C)=O)C1c1ccccn1 (centres undefined) | – | inconclusive [inhibitor, single point]

Structure (SMILES) | activity change, negative = inhibition | Potency
CN(C(=O)c1cccs1)c1ccc(OCC(=O)N2CCC(C(N)=O)CC2)cc1 | inactive: 16.3% | –
CCc1nnc(NS(=O)(=O)c2ccc(NC(=S)NC(=O)c3ccc(OC)cc3)cc2)s1 | – | inconclusive [inhibitor, partial curve, poor fit]
CCn1cc(CN2CCC(C(=O)Nc3cccc(-c4cccc(Cl)c4)c3)CC2)cn1 | inactive: -76.4% | –
C=CCn1cccc(C(=O)Nc2ccc(OC)c(OC)c2)c1=O | inactive: 34.2% | –
CCCC1(C(=O)OCC)NC(c2ccc(N(C)C)cc2)C2C(=O)N(c3ccc(OCC)cc3)C(=O)C21 (centres undefined) | – | active: 11.7 µM
CCOc1cc(/C=C2\C(=O)N(CCc3ccc(OC)c(OC)c3)C(C)=C2C(=O)OC)ccc1O | – | active: 11.7 µM
CCn1c2ccc(F)cc2c2nnc(SCCN3CCCCC3)nc21 | – | inconclusive [inhibitor, single point]
O=C(CN(C(=O)CCC(=O)Nc1nccs1)c1ccc2c(c1)OCO2)NCc1ccccc1 | – | inconclusive [inhibitor, single point]
CCOC(=O)c1cc(C#N)c(Oc2cccc(C(F)(F)F)c2)nc1-c1ccccc1 | – | active: 13.1 µM
CC1(C)O[C@@H]2C[C@H]3[C@@H]4C[C@H](F)C5=CC(=O)C=C[C@]5(C)[C@H]4[C@@H](O)C[C@]3(C)[C@]2(C(=O)CO)O1 | – | inconclusive [inhibitor, single point]
O=S(=O)(Nc1cc(Cl)cc(Cl)c1)N1CCOCC1 | inactive: 4.21% | –
COc1ccc(-n2c(SCC(=O)Nc3cc(C)on3)nc3ccccc3c2=O)cc1Cl | inactive: 0% | –
CCOc1ccc(-n2nnnc2SCC(=O)NNC(=O)c2ccco2)cc1 | inactive: 6.68% | –
CC(=O)Nc1ccc(S(=O)(=O)NCC(=O)OC(C)c2ccccc2Cl)cc1 (centres undefined) | inactive: -15.8% | –
CCc1ccc(N(C(=O)CCC(=O)Nc2cc(C)on2)C(C(=O)NC2CCCC2)c2ccco2)cc1 (centres undefined) | – | inconclusive [inhibitor, partial curve, poor fit]
COc1ccc(CCNC(=O)c2cccc3c2C(=O)N(C2CCCCC2)C3)cc1OC | – | inconclusive [inhibitor, partial curve]
CCCNC(=O)C(Cc1ccc(I)cc1)NC(=O)c1ccc2ccccc2n1 (centres undefined) | – | inconclusive [inhibitor, partial curve, poor fit]
CCOC(=O)[C@H]1[C@H]2COc3cc(OC)ccc3[C@@H]2N2C(=O)c3ccc(F)cc3NC(=O)[C@@]12C | – | inconclusive [inhibitor, single point]
O=C(c1ccccc1F)N(NC(=O)C(O)(c1ccccc1)c1ccccc1)c1ccccc1 | inactive: 18% | –
COc1cc(/C=N/NC(=O)c2ccccn2)ccc1OC(=O)c1ccc(Br)cc1 | inactive: 46% | –
N#CC1=C(N)OC2=C(CC/C2=C\c2ccccc2)C1c1ccccc1 (centres undefined) | – | inconclusive [inhibitor, partial curve, poor fit]
COc1ccc(C2C(C(C)=O)=C(O)C(=O)N2c2nccs2)c(OC)c1 (centres undefined) | inactive: -0.11% | –
